For 24 molecules, cell count results are on record in the supplement of paper PMC4604168 (melanoma cell lines).

The list shows a part of the results. Most values come without repeats; read them as rough.

Holding throughout (test): cell count relative to DMSO control; melanoma cells; higher = more viable cells
Common to all, as to settings: library dose: standard library concentration; 72 h

Assay [1] relates to A101D.
In assay [2] the test system is A2058.
In assay [3] the test system is A375.
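Further: cells treated in 1,536-well plates, then fixed and DAPI-stained, with nuclei counted from automated high-throughput microscope images.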

Take `CC[C@]1(O)C[C@H]2CN(CCc3c([nH]c4ccccc34)[C@@](C(=O)OC)(c3cc4c(cc3OC)N(C=O)[C@H]3[C@@](O)(C(=O)OC)[C@H](OC(C)=O)[C@]5(CC)C=CCN6CC[C@]43[C@@H]65)C2)C1` [vincristine] + C=C(c1ccc(C(=O)O)cc1)c1cc2c(cc1C)C(C)(C)CCC2(C)C [Bexarotene] (first compound 0.0005 µM, partner dose 10 µM): the cell count in assay [1] turned out to be 57.4%; in assay [2], 119%; in assay [3] it was 79.5%.

In the case of `CC[C@]1(O)C[C@H]2CN(CCc3c([nH]c4ccccc34)[C@@](C(=O)OC)(c3cc4c(cc3OC)N(C=O)[C@H]3[C@@](O)(C(=O)OC)[C@H](OC(C)=O)[C@]5(CC)C=CCN6CC[C@]43[C@@H]65)C2)C1` [vincristine] + CN(NC(=O)CC(=O)NN(C)C(=S)c1ccccc1)C(=S)c1ccccc1 [STA4783] (first compound 0.0005 µM, partner dose 0.03 µM), the cell count turned out to be 32% in assay [1], 10% in assay [2] and 118% in assay [3].

As to `N#CC[C@H](C1CCCC1)n1cc(-c2ncnc3[nH]ccc23)cn1` [ruxolitinib] + C#Cc1cccc(Nc2ncnc3cc(OCCOC)c(OCCOC)cc23)c1 [erlotinib] (first compound 5 µM, partner dose 4 µM), the cell count in assay [1] stood at 74.8%; in assay [2] it was 63.8%; in assay [3], 135%.

Turning to `N#CC[C@H](C1CCCC1)n1cc(-c2ncnc3[nH]ccc23)cn1` [ruxolitinib] + C[C@]1(O)C[C@@H](c2nc(-c3ccc4ccc(-c5ccccc5)nc4c3)c3c(N)nccn32)C1 [OSI906] (first compound 5 µM, partner dose 2 µM), the cell count was found to be 97.3% in assay [1], 77.5% in assay [2] and 119% in assay [3].

For `CC[C@]1(O)C[C@H]2CN(CCc3c([nH]c4ccccc34)[C@@](C(=O)OC)(c3cc4c(cc3OC)N(C=O)[C@H]3[C@@](O)(C(=O)OC)[C@H](OC(C)=O)[C@]5(CC)C=CCN6CC[C@]43[C@@H]65)C2)C1` [vincristine] + Cc1ccc(NC(=O)c2cccc(N(C)C)c2)cc1NC(=O)c1ccc(O)cc1 [ZM336372] (first compound 0.0005 µM, partner dose 10 µM), the cell count in assay [1] is 37.4%; in assay [2], 14.3%; in assay [3], 77.7%.

As for `CC[C@]1(O)C[C@H]2CN(CCc3c([nH]c4ccccc34)[C@@](C(=O)OC)(c3cc4c(cc3OC)N(C=O)[C@H]3[C@@](O)(C(=O)OC)[C@H](OC(C)=O)[C@]5(CC)C=CCN6CC[C@]43[C@@H]65)C2)C1` [vincristine] + CNC(=O)c1cc(Oc2ccc(NC(=O)Nc3ccc(Cl)c(C(F)(F)F)c3)cc2)ccn1 [sorafenib] (first compound 0.0005 µM, partner dose 2 µM), the figures for the cell count in assay [1], in assay [2] and in assay [3] were 39.5%, 10.9% and 89.6%, respectively.

Consider `N#CC[C@H](C1CCCC1)n1cc(-c2ncnc3[nH]ccc23)cn1` [ruxolitinib] + Cn1sc(=O)n(Cc2ccccc2)c1=O [TDZD-8] (first compound 5 µM, partner dose 2 µM), for which the cell count is 124% in assay [1], 91.9% in assay [2] and 124% in assay [3].

As to `CC[C@]1(O)C[C@H]2CN(CCc3c([nH]c4ccccc34)[C@@](C(=O)OC)(c3cc4c(cc3OC)N(C=O)[C@H]3[C@@](O)(C(=O)OC)[C@H](OC(C)=O)[C@]5(CC)C=CCN6CC[C@]43[C@@H]65)C2)C1` [vincristine] + C[C@@H](Oc1cc(-c2cnn(C3CCNCC3)c2)cnc1N)c1c(Cl)ccc(F)c1Cl [Crizotinib] (first compound 0.0005 µM, partner dose 1 µM), the results for the cell count in assay [1], in assay [2] and in assay [3] were 72.8%, 104% and 107%, respectively.

Take `N#CC[C@H](C1CCCC1)n1cc(-c2ncnc3[nH]ccc23)cn1` [ruxolitinib] + CS(=O)(=O)c1ccc(C(=O)Nc2ccc(Cl)c(-c3ccccn3)c2)c(Cl)c1 [vismodegib] (first compound 5 µM, partner dose 5 µM): the cell count in assay [1] is 116%; in assay [2], 91.4%; in assay [3] it was 139%.

As to `Cc1cc(Nc2cc(N3CCN(C)CC3)nc(Sc3ccc(NC(=O)C4CC4)cc3)n2)n[nH]1` [Tozasertib] + O=C(O)c1ccc(-c2c[nH]c3ncc(-c4ccccc4)cc23)cc1C1CCCC1 [GSK650394] (first compound 0.03 µM, partner dose 0.8 µM), the cell count in assay [1] came out at 80.4%; in assay [2] it was 84.1%; in assay [3], 92.5%.

For `Cc1cc(Nc2cc(N3CCN(C)CC3)nc(Sc3ccc(NC(=O)C4CC4)cc3)n2)n[nH]1` [Tozasertib] + CC(C)C[C@H](NC(=O)[C@H](Cc1ccccc1)NC(=O)c1cnccn1)B(O)O [Bortezomib] (first compound 0.03 µM, partner dose 0.005 µM), the cell count was 9.27% in assay [1], 9.1% in assay [2] and 84.3% in assay [3].

With `Cc1cc(Nc2cc(N3CCN(C)CC3)nc(Sc3ccc(NC(=O)C4CC4)cc3)n2)n[nH]1` [Tozasertib] + Cn1sc(=O)n(Cc2ccccc2)c1=O [TDZD-8] (first compound 0.03 µM, partner dose 2 µM), the figures for the cell count in assay [1], in assay [2] and in assay [3] were 87.3%, 87% and 137%, respectively.

`CC[C@]1(O)C[C@H]2CN(CCc3c([nH]c4ccccc34)[C@@](C(=O)OC)(c3cc4c(cc3OC)N(C=O)[C@H]3[C@@](O)(C(=O)OC)[C@H](OC(C)=O)[C@]5(CC)C=CCN6CC[C@]43[C@@H]65)C2)C1` [vincristine] + Cc1ccc(Nc2nccc(N(C)c3ccc4c(C)n(C)nc4c3)n2)cc1S(N)(=O)=O [Pazopanib] (first compound 0.0005 µM, partner dose 2 µM): the cell count was 69.1% in assay [1], 62.5% in assay [2] and 102% in assay [3].

`N#CC[C@H](C1CCCC1)n1cc(-c2ncnc3[nH]ccc23)cn1` [ruxolitinib] + Nc1nc(F)nc2c1ncn2[C@@H]1O[C@H](CO)[C@@H](O)[C@@H]1O [fludarabine] (first compound 5 µM, partner dose 1 µM): the cell count worked out at 88.7% in assay [1], 60.5% in assay [2] and 47.7% in assay [3].

As to `CC[C@]1(O)C[C@H]2CN(CCc3c([nH]c4ccccc34)[C@@](C(=O)OC)(c3cc4c(cc3OC)N(C=O)[C@H]3[C@@](O)(C(=O)OC)[C@H](OC(C)=O)[C@]5(CC)C=CCN6CC[C@]43[C@@H]65)C2)C1` [vincristine] + O=C(Nc1cc(C(F)(F)F)cc(C(F)(F)F)c1)c1cc(Cl)ccc1O [IMD0354] (first compound 0.0005 µM, partner dose 0.08 µM), the cell count was 66.2% in assay [1], 73.4% in assay [2] and 97.6% in assay [3].

As to `CC[C@]1(O)C[C@H]2CN(CCc3c([nH]c4ccccc34)[C@@](C(=O)OC)(c3cc4c(cc3OC)N(C=O)[C@H]3[C@@](O)(C(=O)OC)[C@H](OC(C)=O)[C@]5(CC)C=CCN6CC[C@]43[C@@H]65)C2)C1` [vincristine] + O=C(O)[C@@H]1[O][Sb](=[O])([O][Sb]2(=[O])[O][C@H]([C@H](O)CO)[C@H](O)[C@H](C(=O)O)[O]2)[O][C@H]([C@H](O)CO)[C@@H]1O [stibogluconate] (first compound 0.0005 µM, partner dose 10 µM), the results for the cell count in assay [1], in assay [2] and in assay [3] were 93.8%, 63% and 121%, respectively.

As for `N#CC[C@H](C1CCCC1)n1cc(-c2ncnc3[nH]ccc23)cn1` [ruxolitinib] + CN(NC(=O)CC(=O)NN(C)C(=S)c1ccccc1)C(=S)c1ccccc1 [STA4783] (first compound 5 µM, partner dose 0.03 µM), the cell count is 77.5% in assay [1], 5.33% in assay [2] and 145% in assay [3].

`N#CC[C@H](C1CCCC1)n1cc(-c2ncnc3[nH]ccc23)cn1` [ruxolitinib] + CC1(C)NC(=O)N(c2ccc([N+](=O)[O-])c(C(F)(F)F)c2)C1=O [nilutamide] (first compound 5 µM, partner dose 5 µM): the cell count in assay [1] amounted to 88.3%; in assay [2], 71.1%; in assay [3], 106%.

For the molecule `Cc1cc(Nc2cc(N3CCN(C)CC3)nc(Sc3ccc(NC(=O)C4CC4)cc3)n2)n[nH]1` [Tozasertib] + COCC[n+]1c2c(n(Cc3cnccn3)c1C)C(=O)c1ccccc1C2=O [YM155] (first compound 0.03 µM, partner dose 0.002 µM), the cell count came out at 69.2% in assay [1], 14.6% in assay [2] and 77.7% in assay [3].

Consider `CC[C@]1(O)C[C@H]2CN(CCc3c([nH]c4ccccc34)[C@@](C(=O)OC)(c3cc4c(cc3OC)N(C=O)[C@H]3[C@@](O)(C(=O)OC)[C@H](OC(C)=O)[C@]5(CC)C=CCN6CC[C@]43[C@@H]65)C2)C1` [vincristine] + COc1ccc(Cl)c(Nc2nc3ccccc3nc2NS(=O)(=O)c2cccc(NC(=O)C(C)(C)N)c2)c1 [XL147] (first compound 0.0005 µM, partner dose 4 µM), for which the results for the cell count in assay [1], in assay [2] and in assay [3] were 53.5%, 31.2% and 87.1%, respectively.

On to `N#CC[C@H](C1CCCC1)n1cc(-c2ncnc3[nH]ccc23)cn1` [ruxolitinib] + CO[C@@H]1[C@H](N(C)C(=O)c2ccccc2)C[C@H]2O[C@]1(C)n1c3ccccc3c3c4c(c5c6ccccc6n2c5c31)C(=O)NC4 [Midostaurin] (first compound 5 µM, partner dose 0.4 µM), for which the cell count in assay [1] worked out at 59.9%; in assay [2] it was 52%; in assay [3], 91.4%.

For `Cc1cc(Nc2cc(N3CCN(C)CC3)nc(Sc3ccc(NC(=O)C4CC4)cc3)n2)n[nH]1` [Tozasertib] + CCCCCCCCc1ccc(CCC(N)(CO)CO)cc1 [fingolimod] (first compound 0.03 µM, partner dose 10 µM), the cell count in assay [1] was 13.8%; in assay [2], 7.52%; in assay [3], 71.6%.

Regarding `N#CC[C@H](C1CCCC1)n1cc(-c2ncnc3[nH]ccc23)cn1` [ruxolitinib] + CCCCCCCCCCCCCCCCCCOP(=O)([O-])OC1CC[N+](C)(C)CC1 [Perifosine] (first compound 5 µM, partner dose 2 µM), the cell count in assay [1] is 142%; in assay [2], 53.2%; in assay [3], 114%.

In the case of `N#CC[C@H](C1CCCC1)n1cc(-c2ncnc3[nH]ccc23)cn1` [ruxolitinib] + OCCn1cc(-c2cnc3nnn(Cc4ccc5ncccc5c4)c3n2)cn1 [PF04217903] (first compound 5 µM, partner dose 5 µM), the cell count in assay [1] came to 119%; in assay [2], 74.1%; in assay [3] it was 116%.
